Results published in PubChem BioAssay AID1508624 (National Center for Advancing Translational Sciences (NCATS), 2021).
Among all 48,000 compounds or so, about 120 (0.25%) were called active. Roughly 4% stayed inconclusive and do not appear here. Calls follow the shape of the dose curve; as a rule, active = well fitted activation curve with a large enough effect; inconclusive = small, poorly fitted or top-dose-only effect, or another doubt; inactive = no such curve, though single readings can be large or run the other way. The list shows a part of the results.

Assay: Primary qHTS for Identification of Small Molecule Activators of Huntingtin-Antisense Promoter Activity; also: nearly all actives have a fitted effect of over 55% in size
Conditions: HEK293 HTT-AS promoter firefly luciferase reporter, 24 h; series mostly up to 57.5 µM; activity change, positive = activation: at the top concentration
Outline: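 HEK293 luciferase promoter-reporter cells (2,500/well) plated 24 h, then compounds added at up to 57.5 uM final for 24 h at 37 °C. Firefly luminescence by Dual-Glo, normalized to vehicle (0%) and zero RLU (-100%).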

Activity change, positive = activation, inactive:
O=C(Nc1ccc(F)c(Cl)c1)C1Cc2ccccc2CN1S(=O)(=O)c1ccc(F)cc1 (centres undefined) -27.8%, CCc1nn(CC(=O)Nc2ccc(C)cc2C)c(=O)c2cc3sccc3n12 -3.06%, CCOc1ccccc1CNC(=O)CCCn1c(=O)c2cccn2c2cccnc21 -6.71%, Clc1ccc(N2CCN(Cc3nnc(-c4ccc5c(c4)OCO5)o3)CC2)cc1 -2.7%, COc1ccc(-c2cccc(NS(=O)(=O)c3cccs3)c2)nn1 2.53%, CN(C)CCOC(=O)C(c1ccccc1)C1(O)CCCC1 (centres undefined) -1.63%, COc1ccc(NC(=O)C2=C(C)Nc3c(C(=O)Nc4ccc(C)cc4)cnn3C2c2cccc(Cl)c2)cc1 (centres undefined) -5.91%, CCCCN(CC)C(=O)c1c[nH]c2ccc(S(=O)(=O)Nc3cccc(OC)c3)cc2c1=O -9.3%, COc1ccc(NC(=O)CC2Nc3cccc4cccc(c34)NC2=O)cc1 (centres undefined) -22.6%, Cc1ccc2oc(-c3cccc(NC(=O)c4cccc5c(Br)cccc45)c3)nc2c1 16.4%, Cc1ccc2onc(CC(=O)N3CCN(c4ccccc4F)CC3)c2c1 -7.09%, CCc1cc(Cl)c(OC)c(C(=O)NC[C@@H]2CCCN2CC)c1O -4.54%, COc1ccc(-c2cc(C)no2)cc1S(=O)(=O)N1CCN(c2ccc(C(C)=O)cc2)CC1 -18.2%, Clc1ccccc1CSc1nncn2c1cc1occc12 3.83%, O=C(CCCn1c(=O)c2cccn2c2ccccc21)Nc1cccc(Cl)c1 -36.6%, COc1ccc(-c2onc(C)c2C)cc1S(=O)(=O)Nc1ccc(OC(F)(F)F)cc1 -37.6%, Cc1ccc(CSc2oc(-c3ccco3)nc2S(=O)(=O)c2ccc(Cl)cc2)cc1 -8.13%, CCOC(=O)c1cccc(NC(=O)c2cc(S(=O)(=O)N3CCCC3)cn2C)c1 -19.5%, CCOC(=O)CNC(=O)c1cc2c(=O)n(CC)c3ccccc3c2s1 -3.78%, COC(=O)c1cc2sc(C)cc2n1Cc1ccccc1 -12.7%, Cc1ccc(CNC(=O)CSc2ccc(-c3sc(-c4ccccc4)nc3C)nn2)cc1 -12.8%, CCCOC(=O)c1ccc(NC(=O)Cn2nnc3sc4c(c3c2=O)CCC(C(C)(C)C)C4)cc1 (centres undefined) -11.2%, CCCOc1ccc(/C=C/C(=O)Nc2sc3c(c2C(=O)OCC)CCC(C)C3)cc1OC (centres undefined) -15.6%, O=S(=O)(c1ccc(Br)cc1)c1nc(-c2ccco2)oc1SCc1ccccc1F -13.6%, COc1ccc(NC(=O)c2ccco2)cc1NC(=O)C(C)Oc1ccc(Cl)cc1Cl (centres undefined) -35.1%, CCOc1ccc(CCNC(=O)CN2C(=O)c3cccnc3Oc3ccc(C)cc32)cc1OCC -10.9%, O=C(Nc1cccc(C(F)(F)F)c1)c1cc2nc(-c3ccccc3)cc(C(F)(F)F)n2n1 -12.7%, CCCOc1ccc(-c2cccc(NS(=O)(=O)c3cccs3)c2)nn1 6.31%, COc1ccc(CCNC(=O)CCc2c(C)nc3c(-c4ccc(F)cc4)c(C)nn3c2C)cc1OC -8.7%, CC1=C(C(=O)OC2CCCCCC2)C(c2ccccc2Cl)CC(=O)N1 (centres undefined) -32.9%, CCc1ccc(NC(=O)CN(c2ccc(C)cc2)S(=O)(=O)c2c(C)nn(C)c2C)cc1 -15.9%, COCCCNC(=O)N1CCN(c2nnc(C)c3c(C)n(-c4ccc(Cl)cc4)nc23)CC1 -3.85%, CCOc1cccc(CC(=O)N2CCc3c([nH]c4ccccc34)C2c2ccc(OC)cc2)c1OCC (centres undefined) -16.1%, COc1ccc(Cn2c(C(=O)O)c(CNCCc3cccs3)c3ccc(OC)cc32)cc1 -17.4%, Cc1oc2ncn(C)c(=O)c2c1C(=O)N1CCN(c2ccc(Cl)cc2)CC1 -13.6%, COc1ccc(-c2c(C)nn3c(C(F)(F)F)cc(C)nc23)cc1OC -24%, COc1cccc(CNCCCSc2nnnn2C)c1 -18.7%, Cc1ccccc1CN1C(=O)c2ccccc2S(=O)c2ccc(C(=O)NCc3ccccc3)cc21 (centres undefined) -2.23%, COc1ccc(C(=O)NCC(c2cccnc2)N2CCN(c3ccccc3F)CC2)cc1OC (centres undefined) -24.1%, CCCc1nn2c(=O)cc(COC(=O)c3ccccc3NC(=O)C3CCCCC3)nc2s1 -21.4%, CC(C)(C)NCC(O)COc1ccccc1OCC1CCCO1 (centres undefined) -7.46%, Cc1ccc(NC(=O)C2CCN(S(=O)(=O)c3cccs3)CC2)cc1 -25.2%, COC(=O)c1c(C)sc(-c2c(-c3ccc(F)cc3)[nH]c3[nH]c(=O)[nH]c(=O)c23)c1O -13%, CCC(=O)O[C@]1(C(=O)SCF)[C@H](C)C[C@H]2[C@@H]3C[C@H](F)C4=CC(=O)C=C[C@]4(C)[C@@]3(F)[C@@H](O)C[C@@]21C, Cc1ccc(CNC(=O)c2cnn3c(C)c(Cc4c(F)cccc4Cl)c(C)nc23)cc1 10.9%, Cc1ccc2oc3c(c(=O)c2c1)C(c1cccc(O)c1)N(CCCN1CCOCC1)C3=O (centres undefined) -8.87%, Nc1[nH]c(=O)ncc1F, CCOc1ccc(CCNC(=O)c2ccc(C)c(-n3c(C)nc4cccnc43)c2)cc1OCC -10.2%, Cc1cccc(-c2nnc(SCC(=O)NC3CCCCC3)o2)c1 -20.3%, COc1ccc(N(Cc2cccs2)C(=O)COc2ccc([N+](=O)[O-])cc2)cc1 -31.8%, Cc1cc(Br)ccc1NC(=O)CN1C(=O)c2cccnc2Sc2ccccc21 -14.2%, CCOc1ccc(N(CC(=O)Nc2ccc3c(c2)OCO3)S(=O)(=O)c2ccccc2)cc1 -32.9%, CC(C)Sc1ncc(Cl)c(C(=O)Nc2c(C(=O)Nc3ccccc3)oc3ccccc23)n1 15.7%, O=C1c2oc3ccccc3c(=O)c2C(c2cccc(O)c2)N1Cc1ccc(F)cc1 (centres undefined) -29.4%, Cc1nn(C)c2c1c(-c1ccccc1)cc(=O)n2Cc1c(F)cccc1Cl -22.2%, Cc1ccccc1Nc1c(-c2ccccc2O)nc2sccn12 -30.3%, CCc1ccc(NS(=O)(=O)c2ccc3[nH]cc(C(=O)N4CCCCCC4)c(=O)c3c2)cc1 15.6%, O=C1CN(C(=O)c2ccc(S(=O)(=O)N3CCCC3)cc2)C(c2ccc(F)cc2)c2cc(F)ccc2N1 (centres undefined) -4.14%, CCN(c1ccccc1)S(=O)(=O)c1nnc(NC(=O)C(C)Oc2ccccc2)s1 (centres undefined) -26.7%, CCOC(=O)Cc1ccc(NC(=O)N2CCC(CN3CCC(C)CC3)CC2)cc1 -8.25%, COc1ccc(N(C(=O)c2ccc(C)cc2)S(=O)(=O)c2ccc(Cl)cc2)cc1 13.2% [at 11.5 µM, percent change from vehicle, -100% = no light], COc1cc(C2C(C(=O)Nc3ccc(C)cc3C)=C(C)Nc3nc(SCc4ccccc4)nn32)cc(OC)c1OC (centres undefined) -12.4%, COc1cc2[nH]c(=O)n(CCCCCC(=O)N3CCN(c4ccc(Cl)cc4)CC3)c(=O)c2cc1OC -2.86%, Cc1cccc(Cn2c(=O)n(CC3CCC(C(=O)N4CCC(C)CC4)CC3)c(=O)c3sccc32)c1 (centres undefined) -16.2%, O=C(CSc1cn(CC(=O)N2CCCC2)c2ccccc12)Nc1ccccc1C(F)(F)F -29.5%, Cc1ccc(CNC(=O)CN(c2cc(C)cc(C)c2)S(=O)(=O)c2c(C)noc2C)cc1 -9.16%, Cc1nc2cc(-c3ccccc3)nn2c(C)c1CCC(=O)NCc1cccc(Cl)c1 -71.2%, COC(=O)c1ccccc1NC(=O)c1ccc2c(Cl)c3c(nc2c1)CCCC3 19%, COc1cc2nc(NCc3ccccc3)n3nc(-c4ccccc4)nc3c2cc1OC -1.57%, CCOC(=O)Cc1ccc(NC(=O)N2CC(C)Oc3ccc(Cl)cc32)cc1 (centres undefined) -22.3%, Cc1nc2ccn(Cc3cccs3)c(=O)c2cc1C(=O)N1CCN(c2ccccc2)CC1 -12.4%, Cc1[nH]nc2ccc(-c3cncc(OC[C@@H](N)Cc4ccccc4)c3)cc12 -43.1%, O=C(O)C(Cc1cc(I)c(O)c(I)c1)c1ccccc1 (centres undefined) -18%, Cc1ccc(-n2cnc3cc(C(=O)NCc4ccccc4Cl)ccc32)c(C)c1 -29.5%, COc1ccc(CC(=O)NCc2ccc3c(c2)CCN3C(=O)c2cccc(C)c2)cc1 -56%, Cc1nc(-n2nc(C)c(Cc3ccc4c(c3)OCO4)c2C)sc1C(=O)Nc1ccc(Cl)cc1 -18.3%, CCCOc1cccc(C2c3c(oc4ccc(F)cc4c3=O)C(=O)N2Cc2ccc3c(c2)OCO3)c1 (centres undefined) -8.62%, Cc1cccc(Cn2cccc2CNS(=O)(=O)c2ccc(C)c(C)c2)c1 -16.6%, O=C(c1ccco1)n1nc(-c2ccc(Cl)cc2)nc1NCc1ccc(F)cc1 4.23%, CN1c2ccccc2C(=O)N2CCc3c([nH]c4ccccc34)C21 (centres undefined) -57.2%, CN1CCSc2ccc(C(=O)NCc3ccccc3)cc21 18.5%, CCCCN(Cc1ccco1)C(=O)Cn1ncc2c([nH]c3ccccc32)c1=O -18.9%, COc1ccc(C2C(C(=O)Nc3ccccc3)=C(C)Nc3nc(-c4ccccc4Cl)nn32)cc1OC (centres undefined) -9.47%, CCOCCCNc1nc2cc(OC)c(OC)cc2c2nc(-c3ccccc3)nn12 -2.28%, CCOC(=O)c1scc(-c2ccc(C)cc2)c1S(=O)(=O)Nc1ccc(OC)c(Cl)c1 -33.1%, Cc1ccc(NC(=O)Cn2c(=O)n(CCC(=O)NCc3ccccc3Cl)c(=O)c3ccccc32)c(C)c1 -13.3%, O=C(Nc1ccc2nc(SCCOc3ccccc3)sc2c1)c1ccc2c(c1)OCO2 -7.53%, Cc1nc2nc(SCC(=O)N(Cc3ccccc3)C(C)C)nn2c(C)c1Cc1ccccc1Cl -4.09%, CSc1ccc(CCNc2ncnc3onc(-c4ccc(Cl)cc4)c23)cc1 -53%, CCc1ccc2ncc3c(-c4ccc(C)cc4)nn(CC(=O)Nc4ccc(C)cc4)c3c2c1 4.69%, COc1ccc(Oc2nc3c(C)cccn3c(=O)c2/C=C(\C#N)c2nc3ccccc3[nH]2)cc1 -8.63%, Cc1cc(C)c(NC(=O)Cn2c(=O)n(-c3ccc(F)cc3)c(=O)c3c(C)c(C(=O)N(C)C)sc32)c(C)c1 -14.7%, COC(=O)c1cc2occc2n1Cc1nc(-c2cccc(Br)c2)oc1C 16.4%, CCOC(=O)N1CCN(Cc2nc3cc(NC(=O)c4ccccc4OC)ccc3n2C(C)C)CC1 -44.3%
